Test results as given in the supplement of paper PMC8728848.
The other results are listed elsewhere or left out.

Columns and labels:
Assay in all cases: glycan array binding signal (z-score within array); higher = stronger binding
Details in all cases: glycan notation: IUPAC condensed, linker removed
[1] = target: Neu5Ac(a2-3)Gal(b1-3)GlcNAc(b1-2)Man(a1-3)[GlcNAc(b1-4)][Neu5Ac(a2-3)Gal(b1-3)GlcNAc(b1-2)Man(a1-6)]Man(b1-4)GlcNAc(b1-4)GlcNAc
Procedure, shortened: (§1)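 Arrays were curated from the Consortium for Functional Glycomics database, 3228 in total, and kept only where the protein sequence was available. Binding is expressed as a within-array Z-score. This score was averaged across arrays of the same protein sequence at different concentrations or buffers and across linkers, and negative values can be read as non-binding.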

[2] = target: Neu5Ac(a2-3)Gal(b1-3)GlcNAc(b1-2)Man(a1-3)[Neu5Ac(a2-3)Gal(b1-3)GlcNAc(b1-2)Man(a1-6)]Man(b1-4)GlcNAc(b1-4)GlcNAc
Procedure, shortened: as §1

[3] = target: Neu5Ac(a2-3)Gal(b1-3)GlcNAc(b1-3)Gal(b1-3)GlcNAc
Procedure, shortened: as §1

[4] = target: Neu5Ac(a2-3)Gal(b1-3)GlcNAc(b1-3)Gal(b1-4)GlcNAc
Procedure, shortened: as §1

[5] = target: Neu5Ac(a2-3)Gal(b1-3)GlcNAc(b1-3)GalNAc
Procedure, shortened: as §1

[6] = target: Neu5Ac(a2-3)Gal(b1-3)GlcNAc(b1-4)Gal(b1-4)Glc
Procedure, shortened: as §1

[7] = target: Neu5Ac(a2-3)Gal(b1-3)GlcNAc(b1-6)GalNAc
Procedure, shortened: as §1

[8] = target: Neu5Ac(a2-3)Gal(b1-3)GlcNAc6S
Procedure, shortened: as §1

[9] = target: Neu5Ac(a2-3)Gal(b1-3)[Fuc(a1-4)]GlcNAc
Procedure, shortened: as §1

[10] = target: Neu5Ac(a2-3)Gal(b1-3)[Fuc(a1-4)]GlcNAc(b1-3)Gal(b1-3)[Fuc(a1-4)]GlcNAc
Procedure, shortened: as §1

[11] = target: Neu5Ac(a2-3)Gal(b1-3)[Fuc(a1-4)]GlcNAc(b1-3)Gal(b1-4)[Fuc(a1-3)]GlcNAc
Procedure, shortened: as §1

[12] = target: Neu5Ac(a2-3)Gal(b1-3)[GlcNAc(b1-6)]GalNAc
Procedure, shortened: as §1

[13] = target: Neu5Ac(a2-3)Gal(b1-3)[Neu5Ac(a2-6)]GalNAc
Procedure, shortened: as §1

[14] = target: Neu5Ac(a2-3)Gal(b1-3)[Neu5Ac(a2-6)]GlcNAc(b1-3)[Fuc(a1-3)[Gal(b1-4)]GlcNAc(b1-6)]Gal(b1-4)Glc
Procedure, shortened: as §1

[15] = target: Neu5Ac(a2-3)Gal(b1-3)]Neu5Ac(a2-3)Gal(b1-4)]GlcNAc
Procedure, shortened: as §1

[16] = target: Neu5Ac(a2-3)Gal(b1-4)Glc
Procedure, shortened: as §1

[17] = target: Neu5Ac(a2-3)Gal(b1-4)GlcNAc
Procedure, shortened: as §1

[18] = target: Neu5Ac(a2-3)Gal(b1-4)GlcNAc(b1-2)Man
Procedure, shortened: as §1

[19] = target: Neu5Ac(a2-3)Gal(b1-4)GlcNAc(b1-2)Man(a1-3)[GlcNAc(b1-4)][Neu5Ac(a2-3)Gal(b1-4)GlcNAc(b1-2)Man(a1-6)]Man(b1-4)GlcNAc(b1-4)GlcNAc
Procedure, shortened: as §1

[20] = target: Neu5Ac(a2-3)Gal(b1-4)GlcNAc(b1-2)Man(a1-3)[Neu5Ac(a2-3)Gal(b1-4)GlcNAc(b1-2)Man(a1-6)]Man(b1-4)GlcNAc(b1-4)GlcNAc
Procedure, shortened: as §1

[21] = target: Neu5Ac(a2-3)Gal(b1-4)GlcNAc(b1-2)Man(a1-3)[Neu5Ac(a2-3)Gal(b1-4)GlcNAc(b1-2)Man(a1-6)]Man(b1-4)GlcNAc(b1-4)[Fuc(a1-6)]GlcNAc
Procedure, shortened: as §1

[22] = target: Neu5Ac(a2-3)Gal(b1-4)GlcNAc(b1-2)Man(a1-3)[Neu5Ac(a2-6)Gal(b1-4)GlcNAc(b1-2)Man(a1-6)]Man(b1-4)GlcNAc(b1-4)GlcNAc
Procedure, shortened: as §1

[23] = target: Neu5Ac(a2-3)Gal(b1-4)GlcNAc(b1-2)[Neu5Ac(a2-3)Gal(b1-4)GlcNAc(b1-4)]Man(a1-3)[GlcNAc(b1-4)][Neu5Ac(a2-3)Gal(b1-4)GlcNAc(b1-2)[Neu5Ac(a2-3)Gal(b1-4)GlcNAc(b1-6)]Man(a1-6)]Man(b1-4)GlcNAc(b1-4)GlcNAc
Procedure, shortened: as §1

[24] = target: Neu5Ac(a2-3)Gal(b1-4)GlcNAc(b1-2)[Neu5Ac(a2-3)Gal(b1-4)GlcNAc(b1-4)]Man(a1-3)[GlcNAc(b1-4)][Neu5Ac(a2-3)Gal(b1-4)GlcNAc(b1-4)Man(a1-6)]Man(b1-4)GlcNAc(b1-4)GlcNAc
Procedure, shortened: as §1

[25] = target: Neu5Ac(a2-3)Gal(b1-4)GlcNAc(b1-2)[Neu5Ac(a2-3)Gal(b1-4)GlcNAc(b1-6)]Man(a1-6)[Neu5Ac(a2-3)Gal(b1-4)GlcNAc(b1-2)Man(a1-3)]Man(b1-4)GlcNAc(b1-4)GlcNAc
Procedure, shortened: as §1

[26] = target: Neu5Ac(a2-3)Gal(b1-4)GlcNAc(b1-2)[Neu5Ac(a2-3)Gal(b1-4)GlcNAc(b1-6)]Man(a1-6)[Neu5Ac(a2-3)Gal(b1-4)GlcNAc(b1-2)Man(a1-3)][GlcNAc(b1-4)]Man(b1-4)GlcNAc(b1-4)GlcNAc
Procedure, shortened: as §1

[27] = target: Neu5Ac(a2-3)Gal(b1-4)GlcNAc(b1-3)Gal
Procedure, shortened: as §1

[28] = target: Neu5Ac(a2-3)Gal(b1-4)GlcNAc(b1-3)Gal(b1-3)GlcNAc
Procedure, shortened: as §1

[29] = target: Neu5Ac(a2-3)Gal(b1-4)GlcNAc(b1-3)Gal(b1-4)GlcNAc
Procedure, shortened: as §1

[30] = target: Neu5Ac(a2-3)Gal(b1-4)GlcNAc(b1-3)Gal(b1-4)GlcNAc(b1-2)Man(a1-3)[Neu5Ac(a2-3)Gal(b1-4)GlcNAc(b1-3)Gal(b1-4)GlcNAc(b1-2)Man(a1-6)]Man(b1-4)GlcNAc(b1-4)GlcNAc
Procedure, shortened: as §1

[31] = target: Neu5Ac(a2-3)Gal(b1-4)GlcNAc(b1-3)Gal(b1-4)GlcNAc(b1-3)Gal(b1-4)GlcNAc
Procedure, shortened: as §1

[32] = target: Neu5Ac(a2-3)Gal(b1-4)GlcNAc(b1-3)Gal(b1-4)GlcNAc(b1-3)Gal(b1-4)GlcNAc(b1-2)Man(a1-3)[Neu5Ac(a2-3)Gal(b1-4)GlcNAc(b1-3)Gal(b1-4)GlcNAc(b1-3)Gal(b1-4)GlcNAc(b1-2)Man(a1-6)]GalNAc
Procedure, shortened: as §1

[33] = target: Neu5Ac(a2-3)Gal(b1-4)GlcNAc(b1-3)Gal(b1-4)GlcNAc(b1-3)GalNAc
Procedure, shortened: as §1

[34] = target: Neu5Ac(a2-3)Gal(b1-4)GlcNAc(b1-3)Gal(b1-4)GlcNAc(b1-3)[Neu5Ac(a2-3)Gal(b1-4)GlcNAc(b1-3)Gal(b1-4)GlcNAc(b1-6)]GalNAc
Procedure, shortened: as §1

[35] = target: Neu5Ac(a2-3)Gal(b1-4)GlcNAc(b1-3)Gal(b1-4)GlcNAc(b1-6)[Gal(b1-3)]GalNAc
Procedure, shortened: as §1

[36] = target: Neu5Ac(a2-3)Gal(b1-4)GlcNAc(b1-3)Gal(b1-4)[Fuc(a1-3)]GlcNAc
Procedure, shortened: as §1

[37] = target: Neu5Ac(a2-3)Gal(b1-4)GlcNAc(b1-3)GalNAc
Procedure, shortened: as §1

[38] = target: Neu5Ac(a2-3)Gal(b1-4)GlcNAc(b1-3)[Neu5Ac(a2-3)Gal(b1-4)GlcNAc(b1-6)]GalNAc
Procedure, shortened: as §1

B1: Cohesin-hMARCO (Homo sapiens) (protein)
chain: LDDLDAVRIKVDTVNAKPGDTVRIPVRFSGIPSKGIANCDFVYSYDPNVLEIIEIEPGDIIVDPNPDKSFDTAVYPDRKIIVFLFAEDSGTGAYAITKDGVFATIVAKVKEGAPNGLSVIKFVEVGGFANNDLVEQKTQFFDGGANVGDTTEPATPTTPVTTPTTTDDLDAASVRIVGSSNRGRAEVYYSGTWGTICDDEWQNSDAIVFCRMLGYSKGRALYKVGAGTGQIWLDNVQCRGTESTLWSCTKNSWGHHDCSHEEDAGVECSVHHHHHH
glycan array binding signal (z-score) [1]: 0.063 | glycan array binding signal (z-score) [2]: -0.11 | glycan array binding signal (z-score) [3]: -0.356 | glycan array binding signal (z-score) [4]: -0.232 | glycan array binding signal (z-score) [5]: -0.171 | glycan array binding signal (z-score) [6]: -0.356 | glycan array binding signal (z-score) [7]: 0.337 | glycan array binding signal (z-score) [8]: 0.039 | glycan array binding signal (z-score) [9]: -0.569 | glycan array binding signal (z-score) [10]: -0.207 | glycan array binding signal (z-score) [11]: -0.491 | glycan array binding signal (z-score) [12]: -0.287 | glycan array binding signal (z-score) [13]: -0.255 | glycan array binding signal (z-score) [14]: -0.587 | glycan array binding signal (z-score) [15]: -0.303 | glycan array binding signal (z-score) [16]: -0.436 | glycan array binding signal (z-score) [17]: -0.448 | glycan array binding signal (z-score) [18]: 0.296 | glycan array binding signal (z-score) [19]: -0.529 | glycan array binding signal (z-score) [20]: 0.02 | glycan array binding signal (z-score) [21]: -0.31 | glycan array binding signal (z-score) [22]: -0.562 | glycan array binding signal (z-score) [23]: -0.288 | glycan array binding signal (z-score) [24]: -0.007 | glycan array binding signal (z-score) [25]: -0.382 | glycan array binding signal (z-score) [26]: -0.419 | glycan array binding signal (z-score) [27]: -0.069 | glycan array binding signal (z-score) [28]: -0.492 | glycan array binding signal (z-score) [29]: -0.514 | glycan array binding signal (z-score) [30]: -0.478 | glycan array binding signal (z-score) [31]: -0.429 | glycan array binding signal (z-score) [32]: -0.425 | glycan array binding signal (z-score) [33]: -0.222 | glycan array binding signal (z-score) [34]: -0.558 | glycan array binding signal (z-score) [35]: -0.369 | glycan array binding signal (z-score) [36]: -0.528 | glycan array binding signal (z-score) [37]: -0.426 | glycan array binding signal (z-score) [38]: -0.546
